Data published in the supplement of paper PMC9446081.
Screen size: about 39,000 compounds; about 220 (0.56%) showed activity. The list shows a part of the results.

Tested on: Escherichia coli K-12 BW25113
Experiment: relative growth (OD600 normalised to plate interquartile mean) (fraction); higher = less growth inhibition, active = 0.2 or less
Conditions: 50 µM; LB; incubation time: overnight (16-24 h)
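Further: static incubation at 37 °C against the wild-type strain, values averaged over two biological replicates.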

Question: With `COC(=O)C1=CO[C@@H](O[C@@H]2O[C@H](CO)[C@@H](O)[C@H](O)[C@H]2O)/C(=C\CO)[C@@H]1CC(=O)OCCc1ccc(O)cc1` as the compound, how does the relative growth read?
Answer: inactive: 0.991

Question: `CO[C@@H]1CN(C)C(=O)c2cc(NC(=O)NC3CCCCC3)ccc2OC[C@H](C)N(CCc2ccccc2)C[C@H]1C` was tested. Which relative growth did it give?
Answer: inactive: 1.04

Question: With `C[C@@H]1CCCCO[C@@H](CN(C)C(=O)CCCN(C)C)[C@@H](C)CN([C@H](C)CO)C(=O)c2cc(NS(C)(=O)=O)ccc2O1` as the compound, how does the relative growth read?
Answer: inactive: 0.985

Question: How did the relative growth turn out when `COC(=O)C1=C(C)NC(C)=C(C(=O)OCCN(C)Cc2ccccc2)C1c1cccc([N+](=O)[O-])c1.Cl` (stereo not given) was run?
Answer: inactive: 1.04

Question: For `COc1ccc(S(=O)(=O)Nc2ccc3c(c2)C(=O)N([C@@H](C)CO)C[C@@H](C)[C@H](CN(C)S(C)(=O)=O)OCCCC[C@@H](C)O3)cc1`, which relative growth is on record?
Answer: inactive: 1.01

Question: How did the relative growth turn out when `CCOC(=O)N(C)C[C@@H]1OCc2cnnn2CCCC(=O)N([C@H](C)CO)C[C@@H]1C` was run?
Answer: inactive: 1

Question: `CCCCCCCCCCCCCCCC(=O)OC[C@@H](NC(=O)C(Cl)Cl)[C@H](O)c1ccc([N+](=O)[O-])cc1` was tested. Which relative growth did it give?
Answer: inactive: 1.03

Question: With `Cc1ccc(S(=O)(=O)N(C)C[C@H]2Oc3c(NC(=O)Nc4cccc5ccccc45)cccc3C(=O)N([C@@H](C)CO)C[C@H]2C)cc1` as the compound, how does the relative growth read?
Answer: inactive: 0.997

Question: Which relative growth does the source give for `CC=Cc1ccc2n(c1=O)C[C@@H]1[C@@H](CO)[C@H](C(=O)NCCc3cn(C)cn3)N(C(=O)CC)[C@H]21` here?
Answer: inactive: 1

Question: Which relative growth does the source give for `C[C@@H]1CN([C@@H](C)CO)S(=O)(=O)c2ccc(C#CCN(C)C)cc2O[C@H]1CN(C)Cc1cccnc1` here?
Answer: inactive: 1

Question: For `COc1ccc(S(=O)(=O)Nc2ccc3c(c2)CC(=O)N([C@H](C)CO)C[C@@H](C)[C@H](CN(C)C(=O)Nc2c(C)noc2C)O3)cc1`, which relative growth is on record?
Answer: inactive: 0.987

Question: Which relative growth does the source give for `CCOC(=O)c1cncc(C(=O)O)c1` here?
Answer: inactive: 0.945

Question: How did the relative growth turn out when `C[C@@H]1CN([C@H](C)CO)C(=O)c2cccc(NC(=O)Nc3ccc(F)cc3)c2O[C@@H]1CN(C)C(=O)Nc1cccc2ccccc12` was run?
Answer: inactive: 0.991

Question: How did the relative growth turn out when `C[C@@H]1CCCCO[C@@H](CN(C)Cc2ccc(C(=O)O)cc2)[C@@H](C)CN([C@H](C)CO)C(=O)c2cc(NS(=O)(=O)c3ccccc3)ccc2O1` was run?
Answer: inactive: 0.996

Question: How did the relative growth turn out when `CO[C@H](CN(C)C(=O)C1CCOCC1)[C@@H](C)CN(C(=O)Nc1ccc(C(F)(F)F)cc1)[C@@H](C)CO` was run?
Answer: inactive: 0.918

Question: With `C[N+](C)(C)C[C@@H](O)CC(=O)O` as the compound, how does the relative growth read?
Answer: inactive: 0.99

Question: How did the relative growth turn out when `N[C@H]1CC[C@H](CCn2cc(C3CCCCC3)nn2)O[C@@H]1CO` was run?
Answer: inactive: 1.02

Question: How did the relative growth turn out when `C[C@@H]1CN([C@H](C)CO)S(=O)(=O)c2ccc(-c3ccc(C(=O)N(C)C)cc3)cc2O[C@H]1CN(C)C(=O)Cc1ccccn1` was run?
Answer: inactive: 1.01

Question: Which relative growth does the source give for `CN1CCc2cccc3c2C1Cc1ccc(O)c(O)c1-3.Cl` (stereo not given) here?
Answer: inactive: 1.05

Question: `C[C@@H]1CN([C@H](C)CO)C(=O)c2cc(NC(=O)Nc3ccc(F)cc3)ccc2O[C@H]1CN(C)C(=O)Nc1ccc(C(F)(F)F)cc1` was tested. Which relative growth did it give?
Answer: inactive: 0.97

Question: With `O=C(C[C@@H]1CC[C@@H]2[C@H](COC[C@H](O)CN2S(=O)(=O)c2ccccc2)O1)N[C@@H]1CCN(Cc2ccccc2)C1` as the compound, how does the relative growth read?
Answer: inactive: 0.989

Question: For `Cc1noc(C)c1S(=O)(=O)N(C)C[C@@H]1OCCCC[C@@H](C)Oc2ccc(NC(=O)CCCCCC(=O)Nc3ccccc3N)cc2C(=O)N([C@H](C)CO)C[C@@H]1C`, which relative growth is on record?
Answer: inactive: 1

Question: `Cc1noc(C)c1S(=O)(=O)N(C)C[C@@H]1OCc2cn(nn2)CCCC(=O)N([C@@H](C)CO)C[C@@H]1C` was tested. Which relative growth did it give?
Answer: inactive: 0.983

Question: Which relative growth does the source give for `Cc1ccc(S(=O)(=O)Nc2ccc3c(c2)C(=O)N([C@@H](C)CO)C[C@H](C)[C@H](CN(C)C(=O)Nc2c(C)noc2C)OCCCC[C@@H](C)O3)cc1` here?
Answer: inactive: 0.975

Question: Which relative growth does the source give for `C[C@@H]1CN([C@H](C)CO)C(=O)c2cc(NC(=O)CCN3CCOCC3)ccc2O[C@@H]1CN(C)S(=O)(=O)c1ccc(F)cc1` here?
Answer: inactive: 0.992

Question: `CNC(=O)[C@H]1C[C@@H]2CN(Cc3cnn(C)c3)C[C@@H]2N1C` was tested. Which relative growth did it give?
Answer: inactive: 0.999

Question: How did the relative growth turn out when `C[C@@H]1CCCCO[C@H](CN(C)C(=O)c2ccccc2)[C@H](C)CN([C@H](C)CO)C(=O)c2cc(NS(=O)(=O)c3ccc(Cl)cc3)ccc2O1` was run?
Answer: inactive: 0.99

Question: `C[C@@H]1CN([C@H](C)CO)C(=O)c2cc(NC(=O)C3CCCCC3)ccc2O[C@@H](C)CCCCO[C@@H]1CN(C)Cc1ccc2c(c1)OCO2` was tested. Which relative growth did it give?
Answer: inactive: 1.01

Question: Which relative growth does the source give for `Cc1noc(C)c1S(=O)(=O)Nc1ccc2c(c1)C(=O)N([C@@H](C)CO)C[C@H](C)[C@H](CN(C)Cc1ccc(C(F)(F)F)cc1)OCCCC[C@H](C)O2` here?
Answer: inactive: 0.993

Question: Which relative growth does the source give for `C[C@@H]1CN([C@@H](C)CO)C(=O)c2cc(NC(=O)NC3CCCCC3)ccc2O[C@H]1CN(C)Cc1ccc(-c2ccccc2)cc1` here?
Answer: inactive: 1.02

Question: For `C[C@@H]1CN([C@@H](C)CO)C(=O)c2cc(NC(=O)Nc3ccc(C(F)(F)F)cc3)ccc2O[C@H]1CN(C)Cc1ccc(C(F)(F)F)cc1`, which relative growth is on record?
Answer: inactive: 1.02

Question: With `C[C@@H]1CN([C@H](C)CO)C(=O)c2cccc(NS(=O)(=O)c3ccc(F)cc3)c2O[C@@H]1CN(C)S(=O)(=O)c1ccc(F)cc1` as the compound, how does the relative growth read?
Answer: inactive: 0.959

Question: With `CC(C)C(=O)Nc1cccc(Cl)c1` as the compound, how does the relative growth read?
Answer: inactive: 1

Question: Which relative growth does the source give for `C/C=C1\[C@H](O[C@@H]2O[C@H](CO)[C@@H](O)[C@H](O)[C@H]2O)OC=C(C(=O)OC)[C@H]1CC(=O)OC` here?
Answer: inactive: 0.847

Question: `CN1CCN(C(=O)C[C@H]2CC[C@@H]3[C@H](COc4ccc(NC(=O)C5CCOCC5)cc4C(=O)N3C)O2)CC1` was tested. Which relative growth did it give?
Answer: inactive: 1.04

Question: For `COc1ccc(CN(C)C[C@H]2OCCCC[C@@H](C)Oc3ccc(NC(=O)Nc4ccccc4)cc3C(=O)N([C@H](C)CO)C[C@H]2C)cc1`, which relative growth is on record?
Answer: inactive: 1.01

Question: How did the relative growth turn out when `C[C@@H]1CN([C@@H](C)CO[Si](C)(C)C(C)(C)C)C(=O)c2cc(NC(=O)Nc3ccccc3)ccc2O[C@@H](C)CCCCO[C@H]1CN(C)S(=O)(=O)c1ccc(F)cc1` was run?
Answer: inactive: 0.998

Question: For `C[C@H](CO)N1C[C@H](C)[C@@H](CN(C)C(=O)c2ccccc2)OCCCC[C@H](C)Oc2ccc(NC(=O)Nc3ccc4c(c3)OCO4)cc2C1=O`, which relative growth is on record?
Answer: inactive: 0.962

Question: How did the relative growth turn out when `C[C@]12C[C@]3(O)O[C@@H](O1)[C@]1(COC(=O)c4ccccc4)[C@H]3C[C@@]12O[C@@H]1O[C@H](CO)[C@@H](O)[C@H](O)[C@H]1O` was run?
Answer: inactive: 1

Question: `C[C@H](CO)N1C[C@H](C)[C@H](CN(C)S(=O)(=O)c2cccs2)OCCCC[C@H](C)Oc2ccc(NC(=O)NC3CCCCC3)cc2C1=O` was tested. Which relative growth did it give?
Answer: inactive: 1.02

Question: `CC1(C)SC2C(NC(=O)Cc3ccccc3)C(=O)N2C1C(=O)[O-].[K+]` (stereo not given) was tested. Which relative growth did it give?
Answer: inactive: 0.576

Question: Which relative growth does the source give for `O=C(N/N=C/[C@H](O)[C@@H](O)[C@H](O)CO)c1ccccc1O` here?
Answer: inactive: 0.986

Question: For `COc1ccc(NC(=O)Nc2cccc3c2O[C@@H](CN(C)C(=O)Nc2ccc(C(F)(F)F)cc2)[C@@H](C)CN([C@H](C)CO)C3=O)cc1`, which relative growth is on record?
Answer: inactive: 0.941

Question: For `C[C@@H]1CCCCO[C@@H](CN(C)Cc2ccc(Cl)c(Cl)c2)[C@@H](C)CN([C@@H](C)CO)C(=O)c2cc(NC(=O)Nc3ccc(F)cc3)ccc2O1`, which relative growth is on record?
Answer: inactive: 1.02

Question: With `CC(C)NC(=O)N(C)C[C@H]1OCc2cnnn2CCCC(=O)N([C@@H](C)CO)C[C@H]1C` as the compound, how does the relative growth read?
Answer: inactive: 1.01

Question: Which relative growth does the source give for `C[C@@H]1CN([C@H](C)CO)C(=O)c2cc(NC(=O)Nc3ccccc3)ccc2O[C@@H](C)CCCCO[C@H]1CN(C)Cc1ccc2c(c1)OCO2` here?
Answer: inactive: 0.962

Question: With `C[C@@H]1CN([C@@H](C)CO)C(=O)c2cc(NC(=O)Cc3ccccc3)ccc2O[C@@H](C)CCCCO[C@H]1CN(C)C(=O)Nc1cccc2ccccc12` as the compound, how does the relative growth read?
Answer: inactive: 1.03

Question: `COCC#Cc1ccc2c(c1)O[C@H](CN(C)Cc1ccc3c(c1)OCO3)[C@@H](C)CN([C@H](C)CO)S2(=O)=O` was tested. Which relative growth did it give?
Answer: inactive: 1.03

Question: With `CO[C@@H]1CN(C)C(=O)c2ccc(NC(=O)Nc3ccccc3)cc2OC[C@@H](C)N(C(=O)CN(C)C)C[C@H]1C` as the compound, how does the relative growth read?
Answer: inactive: 0.996

Question: Which relative growth does the source give for `Cc1noc(C)c1S(=O)(=O)N(C)C[C@H]1Oc2ccc(NC(=O)CCCN(C)C)cc2C(=O)N([C@@H](C)CO)C[C@H]1C` here?
Answer: inactive: 0.962

Question: Which relative growth does the source give for `O=C(CN1CCOCC1)N[C@@H]1CC[C@@H](CCNC(=O)C2CCC2)O[C@H]1CO` here?
Answer: inactive: 1.01

Question: With `C[C@H](CO)N1C[C@H](C)[C@@H](CN(C)Cc2ccc(Oc3ccccc3)cc2)Oc2c(NC(=O)C3CCCCC3)cccc2C1=O` as the compound, how does the relative growth read?
Answer: inactive: 1.01

Question: Which relative growth does the source give for `CS(=O)(=O)N1CCCN(C(=O)CN2C(=O)COc3ccccc32)CC1` here?
Answer: inactive: 0.998

Question: For `C[C@@H]1CN([C@H](C)CO)S(=O)(=O)c2ccc(-c3ccc(C(=O)N(C)C)cc3)cc2O[C@H]1CN(C)C(=O)C1CC1`, which relative growth is on record?
Answer: inactive: 0.988

Question: With `COc1ccc([C@H]2CC=CC[C@@H](C)Oc3ccccc3C(=O)N(C)[C@H](Cc3ccccc3)C(=O)N2)c(OC)c1` as the compound, how does the relative growth read?
Answer: inactive: 1.02

Question: With `CS(=O)(=O)N1[C@@H]2c3ccc(-c4ccc(F)cc4)c(=O)n3C[C@H]1[C@H](CO)[C@H]2C(=O)N1CCOCC1` as the compound, how does the relative growth read?
Answer: inactive: 0.992

Question: How did the relative growth turn out when `Oc1cccc(O)c1O` was run?
Answer: inactive: 0.878

Question: With `Cc1noc(C)c1S(=O)(=O)N(C)C[C@@H]1OCc2cn(nn2)CCCC(=O)N([C@@H](C)CO)C[C@H]1C` as the compound, how does the relative growth read?
Answer: inactive: 1.02

Question: How did the relative growth turn out when `Nc1ccc(C(=O)O)c(O)c1` was run?
Answer: inactive: 0.99

Question: Which relative growth does the source give for `COCCNC(=O)C[C@H]1CC[C@@H]2[C@@H](COc3ccc(NS(=O)(=O)c4ccc(Cl)cc4)cc3C(=O)N2C)O1` here?
Answer: inactive: 1.01
